The source of these data is patent US20260070975A1 (SANTA ANA BIO, published 2026).

Assay [1] concerns the target T1, Cynomolgus c-Kit (BLI analyte) (cynomolgus).
T1 construct: also called Cynomoguls c-Kit
The assay is described as follows: BLI (Octet), antibody on capture sensor. Here is the method: Further, binding affinities of c-Kit antibodies to human c-Kit and cynomolgus c-Kit were measured by biolayer interferometry ([…]) using an Octect instrument. Briefly, capture sensors were loaded with test antibodies with 3-fold dilutions. The association and dissociation rates to were determined and used to calculate the equilibrium dissociation constant KD (Table 3).
(In general: BLI is a label-free optical method that tracks binding on a fibre tip over time.)

For assay [2], the target named is T2, His-tagged PDGFRa extracellular domain (UniProt P16234 24-528, limits assumed).
T2 construct: extracellular domain; also called c-Kit family member; not shown: His tag
T2 sequence (P16234 24-528 limits assumed): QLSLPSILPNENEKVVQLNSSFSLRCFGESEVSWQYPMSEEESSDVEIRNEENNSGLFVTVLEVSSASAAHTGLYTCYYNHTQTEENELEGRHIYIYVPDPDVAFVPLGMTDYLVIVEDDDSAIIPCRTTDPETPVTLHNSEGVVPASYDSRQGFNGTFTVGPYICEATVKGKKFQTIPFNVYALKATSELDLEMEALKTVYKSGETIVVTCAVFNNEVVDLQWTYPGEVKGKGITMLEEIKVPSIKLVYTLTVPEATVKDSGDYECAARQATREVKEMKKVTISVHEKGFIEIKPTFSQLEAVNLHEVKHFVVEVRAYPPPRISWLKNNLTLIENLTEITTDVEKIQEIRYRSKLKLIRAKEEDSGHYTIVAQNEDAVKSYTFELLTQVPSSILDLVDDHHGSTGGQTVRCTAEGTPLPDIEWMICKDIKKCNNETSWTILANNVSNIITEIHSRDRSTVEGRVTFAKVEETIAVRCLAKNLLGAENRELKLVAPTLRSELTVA
The assay is described as follows: ELISA, His-tagged extracellular domain coated. Here is the method:
(§1) His-tagged human c-Kit, His-tagged cynomolgus c-Kit, and His-tagged PDGFRa, PDGFRb, CSF1R, and FLT3 extracellular domains were immobilized on 96 well ELISA plates. Plates were washed with PBST (Phosphate buffered saline+0.05% Tween 20) and blocked for 1 hour with 1% BSA in PBS. Following washing with PBST, mAbs were added to the coated plate and incubated for 2 hours at room temperature. Plates were washed and incubated with HRP-conjugated goat anti-human IgG secondary antibody for 1 hour at room temperature. Following washing, antibody binding was detected colorimetrically by adding 3,3′,5,5′-tetramethylbenzidine (TMB) and incubated at room temperature for 10-20 minutes before adding 2.5N sulfuric acid stopping solution. Absorbance at 450 nm was measured on a plate reader (PerkinElmer). Data was analyzed using GraphPad Prism.
On the technique in general: ELISA stands for enzyme-linked immunosorbent assay.

The target of assay [3] is T3, His-tagged PDGFRb extracellular domain (UniProt P09619 33-532, limits assumed).
T3 construct: extracellular domain; also called c-Kit family member; not shown: His tag
T3 sequence (P09619 33-532 limits assumed): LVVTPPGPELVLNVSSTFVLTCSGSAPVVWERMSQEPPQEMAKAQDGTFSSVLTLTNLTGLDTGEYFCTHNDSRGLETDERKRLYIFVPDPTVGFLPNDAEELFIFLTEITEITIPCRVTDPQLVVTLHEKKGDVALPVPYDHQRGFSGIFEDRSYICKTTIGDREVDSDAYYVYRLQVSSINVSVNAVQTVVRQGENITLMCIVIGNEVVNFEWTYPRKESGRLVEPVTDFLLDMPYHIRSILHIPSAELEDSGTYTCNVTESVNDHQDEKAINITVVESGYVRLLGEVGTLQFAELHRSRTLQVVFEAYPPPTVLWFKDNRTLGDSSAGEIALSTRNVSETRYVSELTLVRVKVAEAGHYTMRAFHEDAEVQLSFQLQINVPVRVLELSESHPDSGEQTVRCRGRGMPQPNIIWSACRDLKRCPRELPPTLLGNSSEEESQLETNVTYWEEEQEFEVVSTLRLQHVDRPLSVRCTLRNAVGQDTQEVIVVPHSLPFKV
The assay is described as follows: ELISA, His-tagged extracellular domain coated. Here is the method:
as §1

For assay [4], the target named is T4, His-tagged CSF1R extracellular domain (UniProt P07333 partial chain, limits assumed).
T4 construct: extracellular domain; also called c-Kit family member; not shown: His tag
T4 sequence (P07333 20-517 limits assumed): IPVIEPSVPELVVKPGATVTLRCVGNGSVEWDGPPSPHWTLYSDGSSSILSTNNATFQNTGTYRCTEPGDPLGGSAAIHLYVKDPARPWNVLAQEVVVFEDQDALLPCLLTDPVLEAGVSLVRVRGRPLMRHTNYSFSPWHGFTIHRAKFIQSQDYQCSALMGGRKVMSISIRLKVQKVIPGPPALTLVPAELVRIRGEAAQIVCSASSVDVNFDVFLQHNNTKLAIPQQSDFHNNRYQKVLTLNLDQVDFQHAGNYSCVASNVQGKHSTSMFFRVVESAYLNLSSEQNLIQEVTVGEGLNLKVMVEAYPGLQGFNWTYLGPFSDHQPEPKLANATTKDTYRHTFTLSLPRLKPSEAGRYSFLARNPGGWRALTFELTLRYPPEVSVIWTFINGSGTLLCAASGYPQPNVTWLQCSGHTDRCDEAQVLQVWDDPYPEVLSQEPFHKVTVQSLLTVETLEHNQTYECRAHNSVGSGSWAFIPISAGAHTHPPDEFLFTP
The assay is described as follows: ELISA, His-tagged extracellular domain coated. On the procedure: as §1

The target of assay [5] is T5, His-tagged FLT3 extracellular domain (UniProt P36888 27-543, limits assumed).
T5 construct: extracellular domain; also called c-Kit family member; not shown: His tag
T5 sequence (looked up): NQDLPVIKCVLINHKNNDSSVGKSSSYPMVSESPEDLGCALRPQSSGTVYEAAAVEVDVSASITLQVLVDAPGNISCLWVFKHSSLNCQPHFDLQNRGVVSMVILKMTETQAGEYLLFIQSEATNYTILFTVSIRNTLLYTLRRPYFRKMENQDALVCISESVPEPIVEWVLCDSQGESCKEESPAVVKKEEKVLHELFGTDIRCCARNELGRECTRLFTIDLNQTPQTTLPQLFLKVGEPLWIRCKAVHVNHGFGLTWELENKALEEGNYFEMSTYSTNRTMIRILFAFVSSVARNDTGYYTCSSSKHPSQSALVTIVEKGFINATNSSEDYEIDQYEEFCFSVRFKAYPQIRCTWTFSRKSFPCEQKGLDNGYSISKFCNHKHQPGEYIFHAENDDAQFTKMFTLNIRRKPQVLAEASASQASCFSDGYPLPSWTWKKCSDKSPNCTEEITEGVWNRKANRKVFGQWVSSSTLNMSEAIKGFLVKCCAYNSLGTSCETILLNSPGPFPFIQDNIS
The assay is described as follows: ELISA, His-tagged extracellular domain coated. Here is the method: as §1

Usually Kd stands for the free concentration of one partner at which half of the binding sites on the other are occupied at equilibrium, for simple one-to-one binding. A higher Kd goes with lower affinity.

B1: Chimeric anti-c-Kit SR1 (chSR1) (antibody, human IgG1, kappa)
heavy: QVQLQQPGAELVKPGASVKMSCKASGYTFTSYNMHWVKQTPGQGLEWIGVIYSGNGDTSYNQKFKGKATLTADKSSSTAYMQINSLTSEDSAVYYCARERDTRFGNWGQGTLVTVSA[here human IgG1 constant region without letters]
light: NIVLTQSPASLAVSLGLRATISCRASESVDIYGNSFMHWYQQKPGQPPKLLIYLASNLESGVPARFSGSGSRTDFTLTIDPVEADDAATYYCQQNNEDPYTFGGGTKLEIKRTVAAPSVFIFPPSDEQLKSGTASVVCLLNNFYPREAKVQWKVDNALQSGNSQESVTEQDSKDSTYSLSSTLTLSKADYEKHKVYACEVTHQGLSSPVTKSFNRGEC
On to B1, for which the Kd in assay [1] is 3.34 nM. Moreover, the binding result in assay [2], in assay [3], in assay [4] and in assay [5] was “no binding” each time.
